# Results from the BET-seq Pho4 binding data (Le et al. 2018).
# Some of the results follow. Values were computed here from the reads of four pooled replicates and scatter widely.
# Target: T1, Pho4 (S. cerevisiae) (UniProt P07270)
# T1 sequence: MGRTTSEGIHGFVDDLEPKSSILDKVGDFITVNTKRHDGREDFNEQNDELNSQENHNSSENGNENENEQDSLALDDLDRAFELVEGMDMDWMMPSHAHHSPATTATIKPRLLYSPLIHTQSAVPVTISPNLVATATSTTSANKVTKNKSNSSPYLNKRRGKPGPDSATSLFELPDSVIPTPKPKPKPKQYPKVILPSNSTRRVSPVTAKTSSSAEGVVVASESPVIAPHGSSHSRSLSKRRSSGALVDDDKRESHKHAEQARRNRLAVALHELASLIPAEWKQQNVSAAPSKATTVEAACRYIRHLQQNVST
# Test: relative binding free energy (BET-seq); higher = weaker binding
# Settings: reference: library average
row,Sequence,relative binding free energy [kcal/mol]
1,AACTGCACGTGAAGTG,0.38
2,TGGTTCACGTGCCGTT,0.19
3,CTATTCACGTGTATTT,0.08
4,AGACGCACGTGGTGTG,-0.06
5,AATAACACGTGGGAAG,0.05
6,TCGGGCACGTGGCGGG,-0.15
7,TGTATCACGTGGATGC,0.03
8,CATGACACGTGGGTTT,-0.08
9,GTTGTCACGTGCAGGC,0.06
10,AGGGCCACGTGGGTGC,-0.41
11,CTTGTCACGTGGTTGT,0.01
12,TAATGCACGTGGGTAT,-0.17
13,AAGGACACGTGCTGTT,0.07
14,TTCGGCACGTGAGAGC,0.2
15,ATAATCACGTGGGTGG,-0.09
16,GTATTCACGTGGCTTA,0.23
17,AAATGCACGTGAATAT,0.32
18,CTTGACACGTGGTGAA,-0.03
19,TATATCACGTGGGCGT,-0.04
20,GGAGACACGTGTAGAG,0.06
21,TCCGCCACGTGGGGGG,-0.21
22,GTGGGCACGTGGTTTT,-0.14
23,TAAGACACGTGAGTTA,0.27

row,Sequence,relative binding free energy [kcal/mol]
1,GTTTACACGTGCTTCG,0.2
2,AGTGTCACGTGGCATA,-0.08
3,TGTGTCACGTGTATCT,0.09
4,TCTTTCACGTGTGAAG,0.26
5,TGTCACACGTGGTGGC,-0.02
6,TGGTTCACGTGCGTTG,0.17
7,TAGTGCACGTGTGACT,-0.05
8,GTGAACACGTGGGAAG,-0.09
9,GTTGTCACGTGTTGGT,0.15
10,TGGGCCACGTGGTAAA,-0.02
11,CGTTGCACGTGGTTAT,-0.01
12,GTAGTCACGTGGGAGC,0.04
13,AACATCACGTGTGTGT,0.18
14,AGGGCCACGTGCGGTT,-0.13
15,TGTCGCACGTGATGGG,0.06
16,GGTGGCACGTGGGCTT,-0.11
17,GGGCACACGTGTGTTA,-0.02
18,TCGGCCACGTGTGGTT,0.01
19,AGGTTCACGTGTGTAG,0.2
20,GGAATCACGTGTTAGC,0.31
21,GGAGGCACGTGACTTG,0.12
22,TCTAGCACGTGTGGAT,0.01
23,TTATTCACGTGTGTAT,0.23

row,Sequence,relative binding free energy [kcal/mol]
1,ATGATCACGTGATTTA,0.08
2,GCGTGCACGTGGAGGG,-0.1
3,CTTTGCACGTGCATGT,0.05
4,TTTTCCACGTGCAGGG,0.04
5,TTGATCACGTGGTTCA,0.18
6,TATGACACGTGCGTTA,-0.12
7,GTTCTCACGTGTCGGT,0.43
8,AGTGGCACGTGGGCTT,-0.27
9,GCCAGCACGTGTGTGG,-0.06
10,GTGGTCACGTGAGTAG,0.2
11,TTTTGCACGTGTGGAT,0.07
12,TGAGGCACGTGTTCGC,0.11
13,TGGTCCACGTGAGGTA,0.1
14,TTGTTCACGTGATCAG,0.28
15,TAAGGCACGTGAATTG,0.18
16,GTGTTCACGTGGGCGG,0.2
17,AGTCTCACGTGACGGT,0.38
18,TGTAGCACGTGTCGTA,-0.09
19,TGGGGCACGTGTCATA,-0.23
20,CTCGACACGTGGGGGT,-0.13
21,ATCTACACGTGGGCGG,0.06
22,GCGGTCACGTGTTATA,0.21
23,GTAATCACGTGTCGGG,0.25

row,Sequence,relative binding free energy [kcal/mol]
1,TATTTCACGTGTCAAG,0.23
2,ATGGACACGTGCGTAT,0.04
3,GGGAACACGTGGTAGG,-0.08
4,GTCTGCACGTGTGTAG,0.02
5,TTATGCACGTGAGAGA,0.17
6,AGTAACACGTGTTTTA,-0.13
7,CGTTACACGTGTGTAT,0.1
8,TAATACACGTGTTATT,-0.11
9,TATCACACGTGGGTTG,-0.12
10,TATCTCACGTGGCGGT,0.23
11,AAGGACACGTGGGCTT,-0.01
12,ATAGGCACGTGGTGAA,-0.13
13,TACATCACGTGTGGGA,0.31
14,TTTGACACGTGGTCGA,0.05
15,GGGGGCACGTGTGATA,0.12
16,GCGAGCACGTGGAGAT,0.06
17,TGTTCCACGTGGCGGA,-0.01
18,TTAGCCACGTGGGTGG,-0.22
19,TATGCCACGTGATTGG,0.06
20,CAGAGCACGTGGTGTT,-0.11
21,GTGGTCACGTGACCGG,0.15
22,TGATGCACGTGGTACT,-0.13
23,TCTGTCACGTGGCTGG,0.06

row,Sequence,relative binding free energy [kcal/mol]
1,GGCTGCACGTGTCGTG,-0.03
2,AGTGGCACGTGGGTCC,-0.23
3,TTCGGCACGTGTCTTG,-0.09
4,AATGTCACGTGTTTGA,0.1
5,TTGCTCACGTGAAATG,0.51
6,CTGTGCACGTGCTGTT,-0.09
7,TCGTCCACGTGTTGGG,-0.02
8,ATGTACACGTGTATGT,-0.06
9,GTTTACACGTGATTCG,0.29
10,GAGGTCACGTGGGCGA,0.08
11,TACTGCACGTGGTAAG,-0.03
12,GGGGGCACGTGTGTGA,-0.07
13,GTGGCCACGTGATAGG,0.26
14,GTCTGCACGTGAGTTT,0.3
15,GAATGCACGTGAAGTG,0.25
16,TTGGGCACGTGTCTGG,0.03
17,GTAGGCACGTGCAGTG,-0.11
18,CGAGGCACGTGGTGCG,-0.24
19,GGTGACACGTGGTAGA,-0.06
20,TTCTGCACGTGGATAT,0.07
21,TTTTTCACGTGTCAGT,0.29
22,ACTGGCACGTGCTGGT,-0.24
23,GCATACACGTGGTGGG,-0.04
